# Measured values as given in PubChem BioAssay AID1461 (National Center for Advancing Translational Sciences (NCATS), 2008).
# In all, about 220,000 compounds went through this assay and about 2,300 (1%) were called active. This list was built around the results that the source calls inconclusive (neither active nor inactive); the mix of calls is not that of the screen. The call rests on the fitted dose curve; in most records, active means well fitted inhibition curve with a large enough effect; inconclusive means small, poorly fitted or top-dose-only effect, or effect the other way; inactive means no such curve, though single readings can be large or run the other way. Potencies of inconclusive entries are left out as doubtful fits.
# Target: Neuropeptide S receptor (Homo sapiens) (UniProt Q6W5P4)
# Experiment: qHTS Assay for Antagonists of the Neuropeptide S Receptor: cAMP Signal Transduction; further: nearly all actives have a fitted effect of over 50% in size
# Details: CHO-NPSR cells, cAMP TR-FRET, antagonist mode; activity change, negative = inhibition: at 38.3 µM (top of the series) unless noted
# On the % scale 0 is the no-effect control and ±100 the full control effect; potency means the concentration at half of the fitted maximal effect; tags describe the fitted curve by direction and shape.
# Chain of UniProt Q6W5P4 (Q6W5P4 whole entry, looked up): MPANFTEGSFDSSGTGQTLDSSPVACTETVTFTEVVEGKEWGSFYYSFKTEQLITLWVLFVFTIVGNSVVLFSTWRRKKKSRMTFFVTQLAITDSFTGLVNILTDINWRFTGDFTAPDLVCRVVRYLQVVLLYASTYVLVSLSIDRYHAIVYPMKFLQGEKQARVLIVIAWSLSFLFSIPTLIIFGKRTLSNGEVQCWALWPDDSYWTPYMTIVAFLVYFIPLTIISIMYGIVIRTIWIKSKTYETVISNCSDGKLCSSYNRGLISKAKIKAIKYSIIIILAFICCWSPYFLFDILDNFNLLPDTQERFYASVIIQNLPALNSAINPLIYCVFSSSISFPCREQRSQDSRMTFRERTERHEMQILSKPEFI
SMILES,Potency,"activity change, negative = inhibition"
O=C1C(Cl)=C(Nc2ccc3cn[nH]c3c2)C(=O)c2ccccc21,active: 6.31 µM,–
O=C(/C=C\Nc1ccc2c(c1)OCO2)c1cccs1,–,inactive: 42.8%
Cn1cc(CNCC2CCCO2)c(-c2ccc(Oc3ccccc3)cc2)n1 (stereo not given),"inconclusive [activator, single point]",–
CCCc1nc(N)sc1C(=O)OCC,–,inactive: 5.17% [at 46.1 µM]
O=S(=O)(CCOc1ccccc1)N1CCOCC1,–,inactive: 10.3%
COc1ccc(-c2ccoc2)cc1[C@H]1[C@H]2C=CC[C@@H](C)[C@@H]2C(=O)N1Cc1ccccc1,"inconclusive [inhibitor, single point]",–
CCOc1ccc(N2CCc3c(C)nc(SC)nc32)cc1,–,inactive: -21.5%
Cc1cccc(NC(=S)N(C)C2(c3ccccc3Cl)CCCCC2=O)c1 (stereo not given),"inconclusive [inhibitor, partial curve, poor fit]",–
Cc1ccc(CC2CC(=O)N(CCc3ccccc3)C2=O)cc1 (stereo not given),–,inactive: -4.09%
CNC(=O)NC(=O)CSc1nc(-c2cccs2)c(C#N)c(=O)[nH]1,"inconclusive [activator, partial curve]",–
O=C1CCCCC1C(Nc1ccc(Br)cc1)c1ccccc1 (stereo not given),"inconclusive [inhibitor, single point]",–
CN(Cc1ccccc1)C(=O)COC(=O)c1cc(-c2ccc(Cl)s2)nc2ccccc12,"inconclusive [inhibitor, single point]",–
O=C(CN1CCN(C(c2ccccc2)c2ccccc2)CC1)NCc1ccccc1,"inconclusive [inhibitor, single point]",–
O=C(CSCc1ccccc1Cl)Nc1ccc2c(c1)OCCO2,–,inactive: -9.72% [at 46.1 µM]
CCCC(=O)Nc1cc(-c2nc3ncccc3o2)ccc1C,"inconclusive [inhibitor, single point]",–
COc1ccc(/C=N/NC(=O)c2cnccn2)c(OC)c1OC,–,inactive: -6.44%
CC1(C)C([N+](=O)[O-])C(c2ccc(F)cc2)NC(c2ccc(F)cc2)C1[N+](=O)[O-] (stereo not given),"inconclusive [activator, single point]",–
CCOC(=O)c1nnc(-c2ccccc2)nc1NCc1ccc(Cl)cc1,"inconclusive [inhibitor, single point]",–
Cc1cc(-c2ccccc2)nc(Oc2ccc(C(C)(C)C)cc2)c1S(C)(=O)=O,"inconclusive [inhibitor, single point]",–
O=C(CSc1nnc(-c2c[nH]c3ccccc23)o1)N1c2ccccc2CCc2ccccc21,"inconclusive [inhibitor, partial curve]",–
NC(=O)N/N=C/c1ccc(-c2cccc(C(F)(F)F)c2)o1,–,inactive: -7.87%
COc1ccc(OC)c(NC(=O)c2c(NC(=O)CNCc3ccco3)sc3c2CCC3)c1,"inconclusive [inhibitor, partial curve]",–
CCN(CC)c1ccc2c(c1)oc(=O)c1c(Cl)cc(=O)oc12,active: 3.98 µM,–
CC(=O)C1=C(C)NC(=O)NC1c1ccccc1 (stereo not given),–,inactive: 17.8% [at 7.67 µM]

SMILES,Potency,"activity change, negative = inhibition"
COC(=O)CCS(=O)(=O)c1cc(Cl)ccc1Cl,–,inactive: 1.78% [at 46.1 µM]
COC(=O)c1ccccc1N=Nc1c(N)[nH][nH]c1=O,"inconclusive [inhibitor, single point]",–
Cc1ccc(C2(c3ccc(C)cc3)CC2C(=O)Nc2ccc([N+](=O)[O-])cc2O)cc1 (stereo not given),"inconclusive [inhibitor, single point]",–
COc1ccc(S(=O)(=O)N2CCN(CC(=O)Nc3cc(C(F)(F)F)ccc3Cl)CC2)cc1,"inconclusive [inhibitor, partial curve]",–
Brc1ccccc1/C=N/Nc1ccc2ccccc2n1,–,inactive: -36.8%
CC1CCCC(C)N1C(=O)Cn1cc(/C=C2/C(=O)Nc3ccccc32)c2ccccc21 (stereo not given),"inconclusive [inhibitor, partial curve]",–
CCOC(=O)C1=C(C)N=C2SC(C)C(=O)N2C1c1ccc(OCC)c(OCC)c1 (stereo not given),"inconclusive [inhibitor, single point]",–
Cc1nn(Cc2ccccc2)c(Cl)c1/C=N/NC(=O)CNc1cccc(C(F)(F)F)c1,"inconclusive [inhibitor, single point]",–
CCN1CCN(c2nc3ccccc3nc2C(C#N)C(=O)OC2CCCCC2)CC1 (stereo not given),"inconclusive [inhibitor, partial curve]",–
COc1ccc(Oc2c(Cl)cnn(-c3ccc(F)cc3)c2=O)cc1,"inconclusive [inhibitor, partial curve]",–
CCOC(=O)C1(Cc2cccc(Cl)c2)CCCN(C(=O)C2CC2)C1 (stereo not given),–,inactive: 7.96%
Cc1ccc(CNc2ccc(N3CCOCC3)cc2)s1,"inconclusive [inhibitor, partial curve]",–
Cc1ccc(C(=O)Nc2ccccc2C(=O)NC2CCCCC2)cc1S(=O)(=O)N1CCOCC1,"inconclusive [inhibitor, single point]",–
CC1(C)Cc2c(c(=S)nc(-c3ccccc3)n2CCOCCO)CO1,"inconclusive [inhibitor, single point]",–
CC(=O)OCC1=C(C(=O)O)N2C(=O)[C@@H](NC(=O)Cc3cccs3)[C@H]2SC1,"inconclusive [inhibitor, single point]",–
CCOc1ccc(C(=O)N[C@H](C(=O)O)C(C)C)cc1,"inconclusive [inhibitor, single point]",–
CCCN1CCC(=NNc2ccc(C(=O)O)cc2)CC1,–,inactive: 1.41%
CC1=C(C(=O)Nc2ccccc2)C(c2ccco2)C(C#N)=C(SCC(=O)Nc2cccc(C)c2C)N1 (stereo not given),"inconclusive [inhibitor, partial curve, poor fit]",–
COc1ccc(S(=O)(=O)N2CCSC2c2ccccc2)cc1 (stereo not given),–,inactive: -9.57% [at 46.1 µM]
O=C1CS/C(=N/N=C2CCCC2)N1,–,inactive: 1.7%
COC(=O)CSc1nnc(CNC(=O)c2cccs2)n1-c1cc(OC)ccc1OC,–,inactive: 3.96% [at 46.1 µM]
CC(C)(C)C(=O)OCCn1c(=O)c2cc3c(=O)n(CCOC(=O)C(C)(C)C)c(=O)c3cc2c1=O,"inconclusive [inhibitor, single point]",–
CC(C)C(=O)Nc1ccc(C(=O)N/N=C/c2cc(Br)cc(Br)c2O)cc1,"inconclusive [activator, single point]",–
Cc1ccc(C2=Nc3c(ccc4ccccc34)C(c3ccncc3)=NN2)cc1,"inconclusive [activator, single point]",–

SMILES,Potency,"activity change, negative = inhibition"
CCc1ccc2c(c1)/C(=C/C(=O)c1cccs1)C(=O)N2,active: 10 µM,–
Cc1ccc(NC(=S)N/N=C/c2ccc(Cl)c([N+](=O)[O-])c2)cc1,"inconclusive [inhibitor, single point]",–
Cc1ccccc1CSCc1nc2ccccc2[nH]1,–,inactive: -6.52%
O=C(Nc1ccccc1)C1=C[C@@H](c2csc3ccccc23)C[C@@H](OCc2ccc(CO)cc2)O1,"inconclusive [activator, partial curve]",–
CC(=O)N(C1=C(N)C(=O)c2ccccc2C1=O)C(C)C,–,inactive: 10.6%
COc1ccc2c(c1OC)C(=O)N1c3cccc(Cl)c3C(=O)OC21 (stereo not given),"inconclusive [inhibitor, partial curve]",–
Cc1ccc(Cl)cc1N1CCN(Cc2nnnn2C2CCCCC2)CC1,"inconclusive [inhibitor, single point]",–
Cc1ccc(C(=O)Oc2ccc(Cl)c3cccnc23)cc1[N+](=O)[O-],"inconclusive [inhibitor, full curve, poor fit]",–
O=S(=O)(c1cccc(F)c1)N1CCc2sccc2C1c1ccc(OC(F)(F)F)cc1 (stereo not given),"inconclusive [activator, partial curve]",–
CCOC(=O)c1c(NC(=O)C2=C(C)NC(=S)NC2c2ccccc2C(F)(F)F)sc(C)c1C (stereo not given),"inconclusive [inhibitor, single point]",–
O=C(NNC(=O)c1cc(OCC(F)(F)F)ccc1OCC(F)(F)F)c1cccc(C(F)(F)F)c1,–,inactive: -18% [at 46.1 µM]
COc1cccc2c1OCC([C@@H]1C[C@H]3CN(Cc4cccc(Cl)c4)C(=O)[C@]34CCCN14)=C2,"inconclusive [activator, partial curve]",–
CC(C)CC(=O)NC(=S)Nc1sc2c(c1C(N)=O)CCC2,"inconclusive [inhibitor, single point]",–
Cc1ccc(P(C)(=O)c2ccc(C)cc2)cc1,–,inactive: -0.161% [at 46.1 µM]
CCC1Oc2ccc(C)cc2N(Cc2cccc(C)c2)C1=O (stereo not given),"inconclusive [inhibitor, full curve, poor fit]",–
Cc1ccc(SCC(=O)N2c3ccccc3Sc3ccccc32)cc1,"inconclusive [inhibitor, single point]",–
O=C(c1ccc2c(c1)OCO2)N(Cc1ccco1)C1(C(=O)NC2CCCCC2)CCCCC1,"inconclusive [activator, partial curve]",–
c1csc(-c2csc3nc(CN4CCOCC4)nc(NCc4ccc5c(c4)OCO5)c23)c1,"inconclusive [inhibitor, partial curve]",–
O=C(O)c1ccccc1N/N=C/C1=C(N2CCOCC2)C(=C\c2ccccc2)/CC1,"inconclusive [activator, partial curve]",–
CC(=O)N1CCN(C2=NC(=O)/C(=C\c3cccs3)S2)CC1,–,inactive: 35.1%
CCOC(=O)N1CCN(C(=O)c2cc(C)c3c(C)nn(-c4ccccc4)c3n2)CC1,–,inactive: -8.58% [at 46.1 µM]
COc1ccc(-c2csc(Nc3ccc(S(=O)(=O)Nc4cc(OC)nc(OC)n4)cc3)n2)cc1,"inconclusive [inhibitor, single point]",–
